# Laboratory results taken from the supplement of paper PMC11417369.
# ± gives the standard deviation of the averaged measurements. The list shows a part of the results.
# Tested on: PfAP2-LT AP2 domain (GST-tagged)
# Experiment: gcPBM binding intensity (ln(normalized median fluorescence intensity)); higher = stronger DNA binding
# In short: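 Using an Agilent 4 × 180k array, primer-extended double-stranded 36-bp intergenic genomic probes and negative controls were exposed for 1 h to GST-fused P. falciparum DNA-binding domains expressed in E. coli. Binding was carried out in 1× PBS with 1% milk, 0.2 mg/ml BSA, 0.5% salmon testes DNA and 0.03% Triton X-100, and protein was detected with Alexa488 anti-GST antibody and a 488 nm scan. Binding intensity is the highest Masliner-normalised natural-log median intensity across replicate spots of either probe orientation.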
row,Sequence,gcPBM binding intensity (ln)
1,TATTTTCAAAAATATACACACACATAAATATATGTA [CACACA_site8160],9.1 ± 0.26
2,TTCCTTCAAAATTTAAGTAATAAGATAAAAATATAA [CACACA_negctrl_site1696],8.24 ± 0.4
3,CACAGATAAATTAACACACACACACGGATATTTATA [CACACA_site7788],10 ± 0.085
4,ATGTATACAAATATATGTACGTATGTTCTCTTCTTT [XGTACX_site7865],9.01 ± 0.45
5,TAAAGAGTTACCATTTGTACTTACGCACACATAAAA [XGTACX_site3145],9.02 ± 0.44
6,TTTTTATGTTATCAAATAAATATAAATATAATTCAT [CACACA_negctrl_site1522],8.12 ± 0.38
7,TATATTTGAAATATATGTACTTATAATACAGTTTAA [XGTACX_site8039],8.4 ± 0.46
8,GAATGAATACGTTTTACACACTTGAATATAATTTCA [CACACA_site989],8.78 ± 0.36
9,ATATATAAATTTAATACACACCCAAAAAAAAAAAAA [CACACA_site7719],8.87 ± 0.37
10,TAAATATATAAACACACACACATTAATACAGATATT [CACACA_site5851],9.69 ± 0.23
11,AAAATTATAAAATGGGCACACATGAAGATTGTAGTA [CACACA_site2226],8.88 ± 0.49
12,ATTTACCCTTGCCATGCACACTTTTTTATAGAAAAT [CACACA_site5857],9.12 ± 0.38
13,TATTAATACAGACACACACACACACTAATTAAAATA [CACACA_site7967],9.96 ± 0.2
14,AATATATAATTAATTGCACACCTTGTCACGCCAAAA [CACACA_site1174],8.95 ± 0.36
15,ATCTATATTTTTATAACACACAATGATGTACATTAC [CACACA_site6633],9.12 ± 0.35
16,TGAAAATATTTTATATGTACATATATTATCAATACA [XGTACX_site92],8.64 ± 0.38
17,TAGAATAATCTATAAACACACAAACCCAACAAAAGA [CACACA_site6132],9.28 ± 0.4
18,TTATTTATTTTTTCATGTACTTAAATATATTAATGT [XGTACX_site5804],8.62 ± 0.47
19,AGCTATAATAAATATACACACATATATAAATATGTA [CACACA_site6583],8.97 ± 0.4
20,ATATATATATAATAAGTGCAAAAATAATGACCTATA,9.04 ± 0.42
21,AAATATATATAAGCGTGTACACATTCTGAGTGTTGT [XGTACX_site1088],9.13 ± 0.41
22,ATAATAAAAATAAAATGTACATACATAAATATATAT [XGTACX_site6228],8.89 ± 0.46

row,Sequence,gcPBM binding intensity (ln)
1,TATCGTTTTATTCGGTTGCACCAAAAAAATAAAATA [GTGCAC_site9408],8.26 ± 0.47
2,AAAGTATAACGGATACCATTTATGTGATTATTTTGT [XGTACX_negctrl_site188],8.73 ± 0.45
3,AAAAAAAATTAAAATAAAATATAAATATAAAATATA [GTGCAC_negctrl_site714],8.39 ± 0.48
4,TATATATTTTTATGCACACACAAAGAAAATTTTCCT [CACACA_site2863],9.26 ± 0.5
5,TGTATGTATTTGTGTAGTACGCATAAGTAATAAAAC [XGTACX_site6704],9.03 ± 0.38
6,AATATATTTAATGAGTGTACATTATTTATTATTATT [XGTACX_site6889],8.83 ± 0.41
7,AAATAAAAAAAATAAAAGCAATCATAATAAAAATCT [CACACA_negctrl_site161],8.79 ± 0.46
8,AATTTATATTAAAATTGTACATTTCTTCTATAATAC [XGTACX_site8639],8.63 ± 0.42
9,TTTGGCTAGTCAAGTTGTACAAAAAAAAAAAAAAAA [XGTACX_site8382],8.38 ± 0.54
10,ATACTTTTAATATGCACATGCAAATATGAAATATCG [TGCATGCA_site603],8.67 ± 0.28
11,TACCAAAAGAAACACACACACAAAATATATAAATAT [CACACA_site1869],9.88 ± 0.28
12,TCCCATATATATATATATATATATATATATAATAAT [TGCATGCA_negctrl_site41],9.33 ± 0.085
13,TTTTTATAGGTAAAAACACACGCTAAAAATAATTAA [CACACA_site3731],8.59 ± 0.41
14,CATTTTGTTTTAAAGTGTACATTATGTAATATAAAA [XGTACX_site647],8.4 ± 0.47
15,ATTTATATTACCCTTGCATGTAGGTGCAATTTTTTT [TGCATGCA_site757],9.11 ± 0.38
16,AAATAAATAAATAAATAAACAAATATGTATAAATGG [XGTACX_negctrl_site153],8.85 ± 0.51
17,TTTATAATTTATATCACACACATATATATATAGTAA [CACACA_site8],8.89 ± 0.4
18,AATAAATATATATTCACACACAAACATATATATATA [CACACA_site4023],9.4 ± 0.39
19,AGGTACTTTTTTAAAACACACATATAATAAATACAC [CACACA_site4730],8.83 ± 0.51
20,TCAACTATCAATATAGTGCATTTTTTTTGGAAAACC [GTGCAC_site9927],8.41 ± 0.52
21,TATCAAAATTAGTATACACACAAAATTAATCAAATA [CACACA_site7117],8.87 ± 0.42
22,ATAAGATTAAACATTGCACACAGAAATATATTTTCT [CACACA_site8743],9.12 ± 0.34

row,Sequence,gcPBM binding intensity (ln)
1,CCTATATAATATATTTGTACTTAATAATTAAAGTGT [XGTACX_site5151],8.61 ± 0.47
2,TATATATATATATATTGTACATATGTAACCTTTTAA [XGTACX_site3914],9.18 ± 0.23
3,TTTTTTAGATTACATAAATATAAATATAAATATATA [GTGCAC_negctrl_site459],8.07 ± 0.47
4,TAAAATAAAAATTTATGTACACATAAAAAAACAAAA [XGTACX_site1112],8.71 ± 0.63
5,GAGAGTACCTATATTGCATGCAGACTTTTTAAATAT [TGCATGCA_site564],8.99 ± 0.3
6,TTAATAAGAGAGCAATAGGTGGACTGTTTCTTTTAT [CACACA_negctrl_site1239],8.72 ± 0.39
7,TTTTTTTTTTTTTGTAGTACATTATGTATATTTTTA [XGTACX_site7810],8.64 ± 0.52
8,GTTAAAATAATATGGTGTACAAATATATAAGTTCAT [XGTACX_site3262],8.99 ± 0.42
9,ATATATATATATAAAAGTACTTATTTTTATTTACAT [XGTACX_site4299],9.13 ± 0.28
10,AATTTACATATATATTGTACATTTATGTATATATAT [XGTACX_site4186],8.99 ± 0.45
11,TAATATTTTTTGTGTACACATATATATATATATATA [CACACA_site5504],9.505 ± 0.064
12,TACTTATATTGAAATGGTACAGATAAAAAAAAAAAA [XGTACX_site1407],8.45 ± 0.52
13,ACATTCTATCTAAGTACACACATTAATTTTTTTTTT [CACACA_site4106],8.96 ± 0.52
14,TTTTGTAATGTGAATATTTGTATATTATTTGTATAT [CACACA_negctrl_site1677],8.73 ± 0.47
15,AATTTCTTCTTAGGGTGTACAATTTGACATAAGGAA [XGTACX_site1773],8.45 ± 0.27
16,ATCTTATATCGTAGAGATTTTTTTTTTTTTTCATTT [XGTACX_negctrl_site140],8.55 ± 0.51
17,GTAATATATATTAAGTAATAGTTTATCTTAGGAAAA [TGCATGCA_negctrl_site302],8.57 ± 0.52
18,AATTAGATGGATAAATGTACATATGTGAATATATTT [XGTACX_site85],8.9 ± 0.41
19,AAAAAAAAAAAAAACACACAAACATCAAATTATTAT [CACACA_site1838],8.95 ± 0.54
20,GTGCCCTTTTTAATAACATGCAAATAACATATTTAT [TGCATGCA_site709],8.76 ± 0.34
21,TTTATATTATACGCACTAATATATATATATATATAT [TGCATGCA_negctrl_site47],9.1 ± 0.37
22,ATATAACACAAGGGCACACATATACCTTTCCTTTTT [CACACA_site412],9.02 ± 0.42

row,Sequence,gcPBM binding intensity (ln)
1,CTTCTTGTAAAATTTGCATGTAATTAAAAGAGAATG [TGCATGCA_site484],8.31 ± 0.35
2,GCCTTTTAGTATTTCACACACGTAAATGAGTATATC [CACACA_site4748],9.17 ± 0.3
3,TTCCCTATCTTTTCAGTGCATTTTGTTTCCTACCTT [GTGCAC_site9813],9.07 ± 0.58
4,TTTAAATATATATATTGTACAAAAAAAAATAATAAA [XGTACX_site4759],8.48 ± 0.52
5,ATAAAATTTATGACTTGTACATGTAAATAAAATATA [XGTACX_site762],8.77 ± 0.38
6,TGTAGAACTCAATATTGTACATTATATAAAATGGGA [XGTACX_site3857],8.68 ± 0.37
7,ATATATATATATTGTACACACATTTATGCATATATA [CACACA_site5738],9.37 ± 0.3
8,TTTTTTTGCATTTCATGTACATATATTGAGCTTAAA [XGTACX_site8485],8.71 ± 0.45
9,ATATTACAGTACAATACATGCATATGGAAAAAAAAA [TGCATGCA_site72],8.92 ± 0.47
10,ATTGGTTCCCCTCTCTTTTCAATATATTTTTTTTTT [XGTACX_negctrl_site259],8.71 ± 0.6
11,ATAAAGAATATAAATACACACTTAAATATAGATTAT [CACACA_site7804],8.88 ± 0.43
12,TTCAAATGATTTATGTGTACATAAAATTATTTTTTA [XGTACX_site107],8.24 ± 0.43
13,GATATAGGGCGTATGTTAATCGTGAAAGAGTGTCTT [GTGCAC_negctrl_site102],8.99 ± 0.46
14,AAAAAATTAAAAATCACACATAAATATATATAAAAA [CACACA_site4192],8.62 ± 0.54
15,TAATGAAGCTTATGCACACGTTCATTATTTATATTA [CACACA_site3219],8.88 ± 0.33
16,TGGTCTTTTAAACAAAAATATAAATTTTTAAATATG [CACACA_negctrl_site392],8.09 ± 0.45
17,AAGAAAATTGTCTGAAGTACAAAACATTAATAATAT [XGTACX_site4864],8.88 ± 0.38
18,AGCTTGTGGATGCAGGTGCTACATTTGTTCTATAAT [GTGCAC_site9645],8.95 ± 0.34
19,AATTTAATATAATGCACACATAAAAAAAAAAAATTC [CACACA_site1504],8.96 ± 0.49
20,TATAAAAATATTTCTACACACATTAAAATATATATA [CACACA_site4770],8.7 ± 0.39
21,CATTTGCCCAGGCACACACACATAAAAAGAAAAATA [CACACA_site356],9.43 ± 0.57
22,AATGAAAGGATGCTGTGTACATATATATATATATAT [XGTACX_site7901],9.94 ± 0.32
